The full ranking holds about 33,000 sequences; the median of “E-score (dimensionless, -0.5 to 0.5)” is about -0.058, and the highest 2% start at about 0.35. This is one part of the list.
These sequences were tested on MvaT (assay: PBM 8-mer E-score (mean of HK and ME arrays) (E-score (dimensionless, -0.5 to 0.5)); higher = stronger relative binding preference; most listed sequences are background and not binding sites).
How it was run: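 Full-length P. aeruginosa MvaT, with glutathione S-transferase fused to its N-terminus (cloned into pTH6838 by isothermal assembly), was tested by protein binding microarray using a previously described protocol. Two universal double-stranded 60-mer arrays (ME and HK) were used, each with a constant 25-mer primer region and a variable 35-mer region covering all 8-mers. The rank-based 8-mer E-score (-0.5 to 0.5) is the mean of the two arrays, parsed with a custom Python script.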

Point of comparison: GGGAGACC, “PBM 8-mer E-score” value -0.254. Against it:
- GTAGGGGA — higher, -0.212
- ATGCCAAT — higher, 0.0128
- AGCGTCCC — lower, -0.295
- GAATAAAC — higher, 0.192
- GCGTGGTA — higher, -0.0771
- ACGAGGAA — higher, -0.000787
- ACGCGACT — higher, -0.096
- AGCGGTAC — higher, -0.0964
- AAAGGATA — higher, 0.119
- ATTGAGAG — higher, -0.0841
- ACTGGTCA — higher, -0.137
- GATTATAA — higher, 0.41
- AGTCCGAT — higher, -0.143
- AATCACAA — higher, 0.126
- GTCTCAAC — higher, -0.00376
- AAGGGCAT — higher, -0.0916
- CCGGGGAA — higher, -0.107
- CGCGAGCC — lower, -0.289
- AATGGAAA — higher, 0.154
- CGGCTCAC — lower, -0.272
- GCCGGTCC — higher, -0.109
- GCAGAGAA — higher, 0.0285
- ACAGTAGA — higher, 0.0623
- ATCCTAGA — higher, -0.198
- AGGGTACG — higher, -0.212
- ATAGTCGG — higher, 0.0516
- GGCGCGGA — lower, -0.309
- ACGTCCCC — higher, -0.161
- AGTGTGAC — higher, 0.0563
- CAGTAGGG — higher, -0.228
- AGCTGATG — higher, -0.0727
- CCGGACTC — higher, -0.117
- CAGTGCGA — higher, 0.0228
- CCGAAGCC — higher, -0.247
- CAGGCTTC — higher, -0.24
- CAGTACAG — higher, -0.0775
- AATCCCCT — higher, -0.223
- AATTAGTC — higher, 0.282
- GCCCAACA — higher, -0.163
- CTGAGTCC — higher, -0.191
- AGATGTGG — higher, -0.155
- AGCATGAC — higher, -0.208
- CTTGTCAC — higher, -0.201
- CGTGGGTA — higher, 0.0178
- GAAAGGGC — higher, -0.199
- AAGACAAG — higher, 0.0271
- AATCGATC — higher, 0.0462
- GCAAGTAC — higher, 0.161
- GCAAGGCC — lower, -0.272
- CGCTAACG — higher, -0.207
- TTCTCCAA — higher, -0.0358
- CCGAGCGC — higher, -0.231
- AATTGTTC — higher, 0.263
- TAGTCTAA — higher, 0.183
- CCTAAACA — higher, 0.0471
- ATATCCAA — higher, 0.242
- ACACGTAA — higher, 0.167
- CTACTACC — higher, -0.126
- TGCCTTAA — higher, 0.151
- GGTTAAAA — higher, 0.239
- CTCACGCC — higher, -0.235
- GTACAGAA — higher, -0.034
- GTGATGTA — higher, -0.0306
- AACCCGCC — higher, 0.101
- ATATAGGG — higher, 0.135
- GTCGCCCA — higher, -0.221
- CACACTGA — higher, 0.0119
- CTTGAATC — higher, -0.127
- CTGGAGGA — lower, -0.344
- CCGACGAG — lower, -0.302
- CGGGGCAG — higher, -0.247
- CAAGATCC — higher, -0.179
- CACCCAAG — higher, -0.111
- GAGAACTA — higher, 0.161
- TCATAGCA — higher, 0.0699
- CGTGCTGA — higher, -0.239
- AGCCTTAC — higher, -0.0634
- TACCCCCA — higher, -0.124
- CAGCATCC — higher, -0.243
- CCGAGGGC — higher, -0.235
- GATCCTGA — higher, -0.242
- AACCTAGG — higher, -0.0613
- GCCGGGAA — higher, -0.122
- AAACGACG — higher, 0.0089
- ACAAAACG — higher, 0.00437
- AATAGTGT — higher, 0.274
- CGGTCACA — higher, -0.153
- GAGGTAGC — higher, -0.211
- AGCAGACC — higher, -0.149
- AAGTCGTG — higher, -0.0141
- GACTAACA — higher, 0.0565
- CCTCTGTA — higher, -0.19
- ACCGGTCC — higher, -0.0864

Reference: the supplement of paper PMC4466236
